The chains are these.
T1: RBFOX1 RRM RbFoxmut (Fox-RRM*) (Homo sapiens, UniProt Q9NWB1 109-208, R118D;E147R;N151S;E152T)
T1 sequence: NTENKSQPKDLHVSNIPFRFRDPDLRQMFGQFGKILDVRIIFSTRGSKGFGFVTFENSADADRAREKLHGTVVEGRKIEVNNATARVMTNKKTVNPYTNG

B1: GGCGGGU (DNA:RNA)
RNA: GGGAGACCGGAAUUCAGAUUGUCCGGCGGGUUUAAAUCCCGUCGUAGCCACCA
DNA 1: CAATCTGAATTCCGGTCTCCC
DNA 2: TGGTGGCTACGACGGGATT
B2: CCCCGAG (DNA:RNA)
RNA: B1 RNA with G25C, G26C, G28C, G30A, U31G
DNA 1: CAATCTGAATTCCGGTCTCCC
DNA 2: TGGTGGCTACGACGGGATT
B3: AAGACCC (DNA:RNA)
RNA: GGGAGACCGGAAUUCAGAUUGUCCAAGACCCUUAAAUCCCGUCGUAGCCACCA
DNA 1: CAATCTGAATTCCGGTCTCCC
DNA 2: TGGTGGCTACGACGGGATT
B4: CCCAGAC (DNA:RNA)
RNA: B3 RNA with A25C, A26C, G27C, C29G, C30A
DNA 1: CAATCTGAATTCCGGTCTCCC
DNA 2: TGGTGGCTACGACGGGATT
B5: AGAUGCU (DNA:RNA)
RNA: B1 RNA with G25A, C27A, G28U, G30C
DNA 1: CAATCTGAATTCCGGTCTCCC
DNA 2: TGGTGGCTACGACGGGATT
B6: ACUUUAG (DNA:RNA)
RNA: B3 RNA with A26C, G27U, A28U, C29U, C30A, C31G
DNA 1: CAATCTGAATTCCGGTCTCCC
DNA 2: TGGTGGCTACGACGGGATT
B7: GGGUCUA (DNA:RNA)
RNA: B3 RNA with A25G, A26G, A28U, C30U, C31A
DNA 1: CAATCTGAATTCCGGTCTCCC
DNA 2: TGGTGGCTACGACGGGATT
B8: GUACAUC (DNA:RNA)
RNA: B3 RNA with A25G, A26U, G27A, A28C, C29A, C30U
DNA 1: CAATCTGAATTCCGGTCTCCC
DNA 2: TGGTGGCTACGACGGGATT
B9: AGCUCGU (DNA:RNA)
RNA: B1 RNA with G25A, G28U, G29C
DNA 1: CAATCTGAATTCCGGTCTCCC
DNA 2: TGGTGGCTACGACGGGATT
B10: UUGGCCG (DNA:RNA)
RNA: B3 RNA with A25U, A26U, A28G, C31G
DNA 1: CAATCTGAATTCCGGTCTCCC
DNA 2: TGGTGGCTACGACGGGATT
B11: CACAAAA (DNA:RNA)
RNA: B3 RNA with A25C, G27C, C29A, C30A, C31A
DNA 1: CAATCTGAATTCCGGTCTCCC
DNA 2: TGGTGGCTACGACGGGATT
B12: CAGUCGU (DNA:RNA)
RNA: B3 RNA with A25C, A28U, C30G, C31U
DNA 1: CAATCTGAATTCCGGTCTCCC
DNA 2: TGGTGGCTACGACGGGATT
B13: CUAAUGA (DNA:RNA)
RNA: B3 RNA with A25C, A26U, G27A, C29U, C30G, C31A
DNA 1: CAATCTGAATTCCGGTCTCCC
DNA 2: TGGTGGCTACGACGGGATT
B14: ACACUUG (DNA:RNA)
RNA: B3 RNA with A26C, G27A, A28C, C29U, C30U, C31G
DNA 1: CAATCTGAATTCCGGTCTCCC
DNA 2: TGGTGGCTACGACGGGATT
B15: ACCACGA (DNA:RNA)
RNA: B3 RNA with A26C, G27C, C30G, C31A
DNA 1: CAATCTGAATTCCGGTCTCCC
DNA 2: TGGTGGCTACGACGGGATT
B16: CUGGUCG (DNA:RNA)
RNA: B3 RNA with A25C, A26U, A28G, C29U, C31G
DNA 1: CAATCTGAATTCCGGTCTCCC
DNA 2: TGGTGGCTACGACGGGATT
B17: GGUACCG (DNA:RNA)
RNA: B3 RNA with A25G, A26G, G27U, C31G
DNA 1: CAATCTGAATTCCGGTCTCCC
DNA 2: TGGTGGCTACGACGGGATT
B18: UUUCGCU (DNA:RNA)
RNA: B1 RNA with G25U, G26U, C27U, G28C, G30C
DNA 1: CAATCTGAATTCCGGTCTCCC
DNA 2: TGGTGGCTACGACGGGATT
B19: ACACGAA (DNA:RNA)
RNA: B3 RNA with A26C, G27A, A28C, C29G, C30A, C31A
DNA 1: CAATCTGAATTCCGGTCTCCC
DNA 2: TGGTGGCTACGACGGGATT
B20: GAAUAAA (DNA:RNA)
RNA: B3 RNA with A25G, G27A, A28U, C29A, C30A, C31A
DNA 1: CAATCTGAATTCCGGTCTCCC
DNA 2: TGGTGGCTACGACGGGATT
B21: UAUCUCA (DNA:RNA)
RNA: B3 RNA with A25U, G27U, A28C, C29U, C31A
DNA 1: CAATCTGAATTCCGGTCTCCC
DNA 2: TGGTGGCTACGACGGGATT
B22: AACGAGA (DNA:RNA)
RNA: B1 RNA with G25A, G26A, G29A, U31A
DNA 1: CAATCTGAATTCCGGTCTCCC
DNA 2: TGGTGGCTACGACGGGATT
B23: ACAGGUA (DNA:RNA)
RNA: B1 RNA with G25A, G26C, C27A, G30U, U31A
DNA 1: CAATCTGAATTCCGGTCTCCC
DNA 2: TGGTGGCTACGACGGGATT
B24: GCUUGGU (DNA:RNA)
RNA: B1 RNA with G26C, C27U, G28U
DNA 1: CAATCTGAATTCCGGTCTCCC
DNA 2: TGGTGGCTACGACGGGATT
B25: AGCGAUA (DNA:RNA)
RNA: B1 RNA with G25A, G29A, G30U, U31A
DNA 1: CAATCTGAATTCCGGTCTCCC
DNA 2: TGGTGGCTACGACGGGATT
B26: CACCCUU (DNA:RNA)
RNA: B3 RNA with A25C, G27C, A28C, C30U, C31U
DNA 1: CAATCTGAATTCCGGTCTCCC
DNA 2: TGGTGGCTACGACGGGATT
B27: GCGCAUC (DNA:RNA)
RNA: B3 RNA with A25G, A26C, A28C, C29A, C30U
DNA 1: CAATCTGAATTCCGGTCTCCC
DNA 2: TGGTGGCTACGACGGGATT
B28: AGGCAUA (DNA:RNA)
RNA: B3 RNA with A26G, A28C, C29A, C30U, C31A
DNA 1: CAATCTGAATTCCGGTCTCCC
DNA 2: TGGTGGCTACGACGGGATT
B29: CAGUAAC (DNA:RNA)
RNA: B3 RNA with A25C, A28U, C29A, C30A
DNA 1: CAATCTGAATTCCGGTCTCCC
DNA 2: TGGTGGCTACGACGGGATT
B30: UCCCACC (DNA:RNA)
RNA: B3 RNA with A25U, A26C, G27C, A28C, C29A
DNA 1: CAATCTGAATTCCGGTCTCCC
DNA 2: TGGTGGCTACGACGGGATT
B31: CAAUUGA (DNA:RNA)
RNA: B3 RNA with A25C, G27A, A28U, C29U, C30G, C31A
DNA 1: CAATCTGAATTCCGGTCTCCC
DNA 2: TGGTGGCTACGACGGGATT

Changes are numbered by the printed parent chain; changes in the protein carry UniProt numbers. The list shows a part of the results.

For this assay, the target named is T1, RBFOX1 RRM RbFoxmut (Fox-RRM*). Put plainly: EMSA; HiTS-Eq, 1 nM pool, 10 min; buffer printed only for the single-RNA assays: 10 mM Tris pH 7.5, 150 mM NaCl, 3.4 mM EDTA, 0.001% NP-40, 30 C. Particulars: tags: His6 N-terminal (pET28a); label: 5' 32P. The method in brief:
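A pool of RNA with 7 randomized nucleotides, 5′-radiolabelled and with DNA-annealed flanks, was equilibrated at 1 nM for 10 min in 50 µL with purified RbFox RRM, wild type or mutant, across increasing protein concentrations. Free RNA was separated by 8% native PAGE, excised, reverse-transcribed, barcoded by PCR and sequenced. Relative association constants were obtained from read-count changes of each RNA species versus the control reaction and normalised to the cognate motif.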
Background: Mobility shift assays separate free from complexed probe on a gel.
For B1, the binding signal is 0.0893 KA relative to UGCAUGU.
As to B2, the binding signal is 0.13 KA relative to UGCAUGU.
The value for B3 was 0.0462 KA relative to UGCAUGU; that for B4 was 0.0843 KA relative to UGCAUGU; that for B5 was 0.11 KA relative to UGCAUGU.
For B6 the value was 0.142 KA relative to UGCAUGU; for B7, 0.1 KA relative to UGCAUGU; for B8, 0.0863 KA relative to UGCAUGU.
For B9 the value was 0.148 KA relative to UGCAUGU; for B10, 0.24 KA relative to UGCAUGU; for B11, 0.0861 KA relative to UGCAUGU.
As to B12, the binding signal is 0.0966 KA relative to UGCAUGU.
As to B13, the binding signal is 0.114 KA relative to UGCAUGU.
For B14 the value was 0.137 KA relative to UGCAUGU.
For B15 the value was 0.112 KA relative to UGCAUGU; for B16, 0.211 KA relative to UGCAUGU; for B17, 0.165 KA relative to UGCAUGU.
As to B18, the binding signal was 0.0799 KA relative to UGCAUGU.
Regarding B19, the binding signal is 0.0925 KA relative to UGCAUGU.
As for B20, the binding signal was 0.115 KA relative to UGCAUGU.
With B21, the binding signal is 0.0853 KA relative to UGCAUGU.
For B22 the value was 0.0697 KA relative to UGCAUGU; for B23, 0.131 KA relative to UGCAUGU; for B24, 0.204 KA relative to UGCAUGU.
As for B25, the binding signal is 0.127 KA relative to UGCAUGU.
For B26 the value was 0.0738 KA relative to UGCAUGU; for B27, 0.49 KA relative to UGCAUGU; for B28, 0.11 KA relative to UGCAUGU.
Take B29: the binding signal was 0.114 KA relative to UGCAUGU.
For B30 the value was 0.0864 KA relative to UGCAUGU; for B31, 0.0875 KA relative to UGCAUGU.

The values above are taken from publication PMC9911399, “Two distinct binding modes provide the RNA-binding protein RbFox with extraordinary sequence specificity”.
